# Measurements taken from paper PMC4336329 (PLoS ONE, 2015).
# Hit rate of the full screen: of about 310,000 compounds, about 14,000 (4.5%) showed an effect of 50% or more. Effects have a minus sign here. The list shows a part of the results.
# Molecular target: human ether-à-go-go-related gene (hERG) potassium channel (human, UniProt Q12809)
# Test: primary screen, population patch clamp on CHO cells stably expressing hERG
# 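Further: peak tail current of the secondary pulse compared with the same well before compound.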
# Chain of human ether-à-go-go-related gene (hERG) potassium channel (Q12809 whole entry, looked up): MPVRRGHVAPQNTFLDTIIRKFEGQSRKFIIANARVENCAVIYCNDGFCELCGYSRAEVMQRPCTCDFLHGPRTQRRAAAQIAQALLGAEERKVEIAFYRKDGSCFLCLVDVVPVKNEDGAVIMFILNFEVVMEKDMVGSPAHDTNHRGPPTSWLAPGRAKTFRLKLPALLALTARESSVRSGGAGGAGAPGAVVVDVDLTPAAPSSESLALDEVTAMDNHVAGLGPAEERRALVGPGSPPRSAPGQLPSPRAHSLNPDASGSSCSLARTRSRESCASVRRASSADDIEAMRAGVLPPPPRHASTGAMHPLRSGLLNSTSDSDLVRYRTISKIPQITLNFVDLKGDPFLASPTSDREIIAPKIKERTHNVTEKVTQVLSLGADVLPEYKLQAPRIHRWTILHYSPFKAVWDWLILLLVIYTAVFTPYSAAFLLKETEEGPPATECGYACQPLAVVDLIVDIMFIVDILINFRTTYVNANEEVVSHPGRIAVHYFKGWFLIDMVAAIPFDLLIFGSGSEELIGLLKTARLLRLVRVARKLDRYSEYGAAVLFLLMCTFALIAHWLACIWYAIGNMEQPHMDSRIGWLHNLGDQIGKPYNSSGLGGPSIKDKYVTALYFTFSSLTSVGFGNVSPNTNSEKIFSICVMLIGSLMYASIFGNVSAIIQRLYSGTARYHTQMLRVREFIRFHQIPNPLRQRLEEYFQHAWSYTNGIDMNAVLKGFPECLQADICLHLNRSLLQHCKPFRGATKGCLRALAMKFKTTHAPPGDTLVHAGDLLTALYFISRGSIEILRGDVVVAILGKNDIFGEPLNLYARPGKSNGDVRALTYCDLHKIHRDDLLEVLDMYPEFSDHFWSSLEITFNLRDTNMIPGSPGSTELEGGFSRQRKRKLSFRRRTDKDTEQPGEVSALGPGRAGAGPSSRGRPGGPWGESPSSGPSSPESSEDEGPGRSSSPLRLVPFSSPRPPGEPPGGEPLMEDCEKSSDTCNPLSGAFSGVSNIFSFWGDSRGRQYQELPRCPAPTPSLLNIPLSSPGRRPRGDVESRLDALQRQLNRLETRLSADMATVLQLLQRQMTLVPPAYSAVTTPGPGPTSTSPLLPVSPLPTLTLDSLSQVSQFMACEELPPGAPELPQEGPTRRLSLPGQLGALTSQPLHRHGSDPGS
row,Structure (SMILES),"hERG current change (%, negative = inhibition) at 10uM"
1,Cc1c(C(=O)N2CCCc3ccccc32)oc2ccc(S(=O)(=O)N3CCOCC3)cc12,-44.2%
2,O=C(NCC1CC1)c1onc(CSc2ccc(F)cc2)c1C(=O)NCC1CC1,-51.6%
3,Cc1ccc(C(c2cc(Br)ccc2O)N2CCSCC2)cc1 (stereo not drawn),-30.9%
4,O=c1[nH]c(C2CCCN(S(=O)(=O)c3ccccc3)C2)nc2c1nnn2Cc1cccc(Cl)c1 (stereo not drawn),14.5%
5,COCC(=O)NC1CCN(C(=O)NCc2ccccc2)CC1,-8.64%
6,Cc1ccc(NC(=O)CSc2ncc3ccccn23)cc1C,1.55%
7,CCOc1ccc(-c2nnc(NC(=O)Cc3cc(OC)c(OC)c(OC)c3)o2)cc1,8.33%
8,CO/N=C/C(C#N)c1ncc(C(F)(F)F)cc1Cl (stereo not drawn),-8.25%
9,Cc1cc(SCC(=O)c2ccccc2)nc(C)n1,-6.65%
10,CC1(c2ccccc2Cl)NC(=O)N(CC(=O)Nc2ccc3c(c2)OCO3)C1=O (stereo not drawn),-5.81%
11,CCC(Sc1ccc2nnc(-c3cccnc3)n2n1)C(=O)O (stereo not drawn),13.9%
12,CCOC(=O)C1=C(C)OC(N)=C(C#N)C1c1cc2ccccc2nc1N1CCCCC1 (stereo not drawn),6.3%
13,Cn1cccc1/C=C1\SC(=S)N(NC(=O)c2ccc(F)cc2)C1=O,18.2%
14,O=C(c1ccco1)N1CCN(c2ncnc3c(-c4ccccc4)nsc23)CC1,-14.2%
15,CCC(C)Nc1ncnc2c1cnn2Cc1ccc(Cl)cc1 (stereo not drawn),-24.9%
16,CC(C)(C)NC(=O)N1c2ccccc2Sc2ccccc21,9.33%
17,COc1ccccc1-c1nnc2sc(COc3ccc(F)cc3)nn12,-74%
18,Cc1ccc(C(=O)CSC2=C(C#N)C(c3ccco3)C3=C(CC(C)(C)CC3=O)N2)cc1 (stereo not drawn),-6.17%
19,O=C(O)COc1ccc2c(c1)O/C(=C\c1cccs1)C2=O,-12.1%
20,Cc1cc(C)c2c(c1)cc(C)c1nnc(SCC(=O)N3CCCc4ccccc43)n12,-13.1%
21,CCCN1CCC2(CC1)C(C#N)=C(N)Oc1c2sc2nc(C)cc(C)c12,-47.8%
22,COc1cc(-c2cc(-c3ccc(O)cc3)nc(N)c2C#N)ccc1O,18.5%
23,C=CCn1c(Oc2ccc(C=O)cc2OCC)nc2c1c(=O)n(C)c(=O)n2C,24.4%

row,Structure (SMILES),"hERG current change (%, negative = inhibition) at 10uM"
1,CCOc1ccc(N2C(=O)CC(Sc3nc(-c4cccs4)cc(C(F)(F)F)c3C#N)C2=O)cc1 (stereo not drawn),10.2%
2,CCC(=O)Nc1nnc(S(=O)(=O)N2CCCCCC2)s1,11.8%
3,CCOc1ccccc1C(=O)N[C@H](C(=O)OCc1cc([N+](=O)[O-])cc2c1OCOC2)C(C)C,-6.89%
4,OC1(c2ccc(F)cc2)CC2CCC(C1)N2Cc1nnnn1C1CCCC1 (stereo not drawn),-20.3%
5,CCOC(=O)N1CCN(c2c(N3CCN(C(=O)OCC)CC3)c(=O)c2=O)CC1,-29.1%
6,Cc1c(-c2ccc(Cl)cc2)oc(=O)c2c(N)n(-c3ccccc3)nc12,6.06%
7,CCC1Oc2ccccc2N(CC(=O)NCCCN2CCN(CC)CC2)C1=O (stereo not drawn),2.97%
8,CN(C)/C=C/C(=O)c1ccccc1OCc1cnc(Cl)s1,14.6%
9,Cc1ccc(-c2cc(C(=O)Nc3cc(C)ccc3O)no2)cc1,23.8%
10,COCCC(=O)N1CCC(Oc2ccc(C(=O)N3CCCCCC3)cc2)CC1,8.67%
11,S=c1ccc2ccccc2[nH]1,3.94%
12,CCCCC/C(=N/O)c1c(C)[nH]c2ccccc12,4.53%
13,Cc1cc(C)n(-c2ncc(C#N)cn2)n1,18.1%
14,O=C(Nc1cccc2ncccc12)c1ccc(-c2ccc(Br)cc2)o1,-0.798%
15,C1=CC2CCC1ON2c1ccccc1 (stereo not drawn),2.6%
16,CCN(C(=O)CCS(=O)(=O)c1cccc2nonc12)c1ccc(C)c(C)c1,-10.3%
17,Oc1ccc(O)c(-c2cnns2)c1,-27.3%
18,COc1ccc(CC(=O)N2CCNC2=O)cc1,-7.39%
19,C#Cc1ccc([C@H]2C=C(C(=O)N3CCOCC3)O[C@@H](OCc3ccc(CO)cc3)C2)cc1,-23.2%
20,Cc1nnc(SCCn2c(N3CCN(Cc4ccccc4)CC3)nc3c2c(=O)[nH]c(=O)n3C)s1,-38.4%
21,Cc1cc(C)c(NC(=O)C2CCCN2CCOC(=O)c2ccccc2)c(C)c1.Cl (stereo not drawn),-26%
22,CCOC(=O)N1CCN(CC(O)COc2c(C)cc(C)cc2C)CC1.Cl (stereo not drawn),-18%
23,Cc1c(Br)c([N+](=O)[O-])nn1CC(=O)NCc1ccco1,-5.27%

row,Structure (SMILES),"hERG current change (%, negative = inhibition) at 10uM"
1,CN(C)c1nc(Nc2ccccc2)nc(Oc2ccc(=O)[nH]n2)n1,23.6%
2,CCOC(=O)C1=C(C)NC(=S)NC1c1ccsc1 (stereo not drawn),-4.29%
3,CC(=O)c1cccc(Nc2nc(-c3sc(N)nc3C)cs2)c1,2.72%
4,CCOc1ccc(/C=C/C(O)=C2/C(=O)NC3(C)CC2c2ccccc2O3)cc1OC (stereo not drawn),8.6%
5,COCCN(C(=O)CCSc1ccc(F)cc1)c1c(N)n(Cc2ccccc2)c(=O)[nH]c1=O,-7.5%
6,COc1cccc(C(=O)NC(=S)Nc2nnn(C)n2)c1,5.1%
7,Cc1cc(C(c2ccc(C)o2)c2ccc(C)o2)c(O)c([N+](=O)[O-])c1,4.31%
8,CN(NC(=O)c1ccccc1)c1ncc(C(F)(F)F)cc1Cl,6.45%
9,Cc1ccccc1Cn1c(C)nc2ccc([N+](=O)[O-])cc2c1=O,0.842%
10,CCC(C)(C)NC(=O)C(c1ccc(C)cc1)N(CCN1CCOCC1)C(=O)CNC(=O)c1cccs1 (stereo not drawn),2.71%
11,CCOc1cc(CNCc2cccs2)cc(Br)c1OC.Cl,-2.1%
12,O=[N+]([O-])c1cncc([N+](=O)[O-])c1Nc1cccc(O)c1,19.9%
13,CC1=NNC(=O)C1C(c1ccccc1)C(C#N)C#N (stereo not drawn),0.593%
14,COc1cc(-c2cc(=O)c3c(O)c(OC)c(OC)c(OC)c3o2)cc(OC)c1OC,1.38%
15,CCCCOc1cccc(-c2cc(C(=O)NNC(=S)NCC)c3ccccc3n2)c1,7.47%
16,Cc1cc(C)cc(Oc2cc(NC(=O)c3cn(C)nc3C)cc([N+](=O)[O-])c2)c1,3.51%
17,COc1ccc(-n2cc(CNC3CCC(O)CC3)c(-c3cccc(F)c3)n2)cc1 (stereo not drawn),-45.3%
18,Cc1cc(C(=O)CSc2nc(N)cc(=O)[nH]2)c(C)n1-c1cccc(F)c1,-5.25%
19,CCOc1ccccc1C(=O)NC1CCNCC1,2.31%
20,O=C(NCCCCCNC(=O)c1ccco1)c1ccco1,12.6%
21,COc1ccc(S(=O)(=O)N2CCC(C(=O)N[C@H](C(=O)N3CCCCCC3)C(C)C)CC2)cc1,6.68%
22,CSc1nc2c(c(=O)[nH]1)CCCC2,20.2%
23,CC1CCc2c(nc3ncnn3c2NCCc2ccccc2F)C1 (stereo not drawn),-15.7%

row,Structure (SMILES),"hERG current change (%, negative = inhibition) at 10uM"
1,COc1ccc(N(CC(=O)NCc2cccs2)S(=O)(=O)c2c(C)nn(C)c2C)cc1,-15.4%
2,O=C(CSc1nc(O)c(C2CCCCC2)c(=O)[nH]1)Nc1ccccc1Cl,5.18%
3,CN(C)c1ccc(CNC23CN4CN(CN(C4)C2)C3)cc1,-3.51%
4,Cc1ccc(C)c(-c2nc3cc(N)ccc3o2)c1,6.2%
5,O=C(NC1CCCCC1)N1CCN(c2ncccn2)CC1,15.1%
6,CC(c1ccccc1)N1C(=O)C2C3C=CC(C4CC34)C2C1=O (stereo not drawn),6.69%
7,CC(C)(C)OC(=O)NC(Cc1ccccc1)C(=O)NCCCC(=O)O (stereo not drawn),8.28%
8,Cc1ccc(C(=O)OCCc2c(C)[nH]n(-c3ccccc3)c2=O)cc1,2.97%
9,CO/N=C(\CS(=O)(=O)Cc1ccc(OC)cc1)c1ccc(Cl)cc1,1.62%
10,O=C(Cc1ccccc1)Nc1nc(=O)c2ccccc2s1,5.29%
11,O=S1(=O)CC/C(=N/Nc2ccccn2)c2cc(F)ccc21,17.9%
12,CN(C)/C=C/C(=O)c1ccc(F)cc1F,-11.3%
13,CN1CCN(C(=O)c2cc3cc(Cl)ccc3[nH]2)CC1.Cl,-35.7%
14,COc1ccc(C)cc1NC(=O)CN1C(=O)COc2ccc(S(=O)(=O)N3CCC(C)CC3)cc21,26.3%
15,O=c1[nH]c2ccc(NS(=O)(=O)c3ccc4ccccc4c3)cc2[nH]1,4.22%
16,Clc1ccc(-c2nc(N3CCOCC3)nc3ccccc23)cc1,7.36%
17,Cc1cc(NC(=O)C2CCCC2)n(-c2nc3ccccc3[nH]2)n1,9.26%
18,O=C(NCc1cccs1)C1CCN(S(=O)(=O)c2cccc3cccnc23)CC1,-11.5%
19,CCOc1ccc(S(=O)(=O)N2CCCCC2)cc1NC(=O)Cc1cccc(C(F)(F)F)c1,-2.63%
20,COc1cc2c(cc1OC)CN(C(=O)CCNS(=O)(=O)c1ccc(Br)cc1)CC2,-36.8%
21,CCn1c(SCC(=O)OC)nnc1-c1ccncc1,7.28%
